# Source: the supplement of paper PMC11417369
# ± gives the standard deviation of the averaged measurements. The list shows a part of the results.
# System: PfAP2-G AP2 domain (GST-tagged)
# Assay: gcPBM binding intensity (ln(normalized median fluorescence intensity)); higher = stronger DNA binding
# Method in brief: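 An Agilent 4 × 180k array of primer-extended double-stranded 36-bp intergenic genomic probes, with negative controls, was incubated for 1 h with GST-tagged P. falciparum DNA-binding domains expressed in E. coli. Alexa488 anti-GST antibody detected bound protein, scanned at 488 nm. Binding intensity is the highest Masliner-normalised natural-log median intensity across replicate spots of either probe orientation.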
row,Sequence,gcPBM binding intensity (ln)
1,GACTCATTAAGGATTATTCCTAATGATCAAAAGAAC [CACACA_negctrl_site515],9.9 ± 0.11
2,TATATTTATTTTTAATGTACATATTTAAGAAAACTA [XGTACX_site4920],11.3 ± 0.81
3,TATTAATTATAAGATGCATGTGCAAAAATATGTTCC [TGCATGCA_site51],9.87 ± 0.11
4,TAAAAATTAAAAAGGGTGCAAAAAAAAAAAAAAAAA [GTGCAC_site9733],10.1 ± 0.69
5,TTTCTTTGTATTTATAGTACATATTTTAATAACTGC [XGTACX_site6673],11.1 ± 0.76
6,ATAATATTTTATTATACATGCAAATTATTATATATA [TGCATGCA_site40],9.34 ± 0.35
7,ATATTTTTTTTTTTCACACACATTTATATTGTATTA [CACACA_site5695],9.985 ± 0.049
8,AGAAAAAAGAGGGATACACACAAACATATATTTATA [CACACA_site7122],9.96 ± 0.057
9,TTTCCGGTAATATGGAGATATATGTGGGTTTTTTTT [GTGCAC_negctrl_site374],9.94 ± 0.099
10,ACAAAATTTACAAAATGTACAAAGTATGTGTTTTAT [XGTACX_site6462],10.7 ± 0.36
11,TATATATATTTATGTACACACATATATACCTTTCAT [CACACA_site5479],11.4 ± 0.86
12,CACCCTTTGTTTTAGAGTACATATGTATATACGTAA [XGTACX_site7964],11.4 ± 0.83
13,ATTATATTAATTTATAGTACAATATTTATATATATG [XGTACX_site4668],11 ± 0.59
14,TATATATTACTTTTTTGTACGAATTTTACAACTACG [XGTACX_site3473],11 ± 0.54
15,AAAAAAAAAAAAAAAAAAAGAAAAGAAAATAGGGTT [GTGCAC_negctrl_site421],10.5 ± 0.38
16,TATTAAAATATTCTCACACACCAAAATATGTATGTA [CACACA_site6565],9.68 ± 0.071
17,TTCAAAGACACAATCACACACATACATAAATATACA [CACACA_site687],10.1 ± 0.28
18,TTCCAAGAAATAATAGTGCATTATTCATTTTAATAA,9.97 ± 0.31
19,AGGAGGAACAAACAAAACAATAAAAATTATAATAAA [GTGCAC_negctrl_site206],9.875 ± 0.092

row,Sequence,gcPBM binding intensity (ln)
1,AAAAGACATTTTTTTTTATAAATACACACGTACGTG [TGCATGCA_negctrl_site281],11.1 ± 0.72
2,AATATACATAACAAGGTGCAAAAAATATTGTTCATA [GTGCAC_site9499],10.1 ± 0.11
3,TTATTATTATGATTATTATGATGATTATACAACTGT [TGCATGCA_negctrl_site241],9.79 ± 0.21
4,TAAAACAGAATGAGGAGTACAAAAAGAAGAAAAGGG [XGTACX_site1246],11.6 ± 0.93
5,AAAATAAATATTACATGTACATATATATATATATAT [XGTACX_site8492],11 ± 0.44
6,AGAGGAAAAATAAAAGGAAAAAAGAAAATAATATTG [CACACA_negctrl_site852],9.745 ± 0.007
7,ATATATTACAATATATGTACTTAATTTGCTTAAATA [XGTACX_site7912],11.3 ± 0.85
8,ATAATATTTTAGAGCAGTACACTTTTATATTTATTG [XGTACX_site5728],11.1 ± 0.71
9,GTAATCCACAAACACACACACATACACATATATATA [CACACA_site2728],10.2 ± 0.18
10,ATCATTTTTAATAAATGTACAAGTTTTAAAAAAAAA [XGTACX_site7340],11 ± 0.69
11,AAAAAAACAACATGCACACGCACACCCAAAAAAAGC [CACACA_site72],10.4 ± 0.13
12,GTGTATTTTGTGCGCACACACATGCAAAAAGAAATA [CACACA_site6660],11 ± 0.69
13,AAAAAAAATTAAGCATGTATAAATATATATATATAT [CACACA_negctrl_site1540],9.86 ± 0.5
14,TTTTACAAGTATTGATAAATAAGAAATATATAAAAT [CACACA_negctrl_site529],9.97 ± 0.12
15,GGTAGGTGAATATATACACACATATATTATATATAT [CACACA_site1984],10.01 ± 0.078
16,TACACATGTTTAAAATGTACGTTTTATAACACACAC [XGTACX_site8229],11.3 ± 0.82
17,TATATATATATGTGCACACATAAAGATATTATTTTT [CACACA_site3733],10.4 ± 0.48
18,TTTTTTTTTTTTATTTGTACACATTTTCATATTTTT [XGTACX_site4406],11.3 ± 0.98
19,TATATTTACTCTAAGTGTACATATTATTTTATAATA [XGTACX_site2046],11.4 ± 0.75

row,Sequence,gcPBM binding intensity (ln)
1,GATCTATATATCATTACACACTTGAATTACTTAAAA [CACACA_site21],9.855 ± 0.092
2,CAAAAATACATTATAATAATATGCACAATAATAAAT [XGTACX_negctrl_site263],10.03 ± 0.042
3,ATAAAATAAAATTGGTGTACTTTTGATAAAATAAAA [XGTACX_site4264],11.4 ± 0.97
4,TAACACATAAATAAATATATACATATATATAAAATA [CACACA_negctrl_site375],9.76 ± 0.12
5,AATATATCATAATGATGTACAAGTAAAACCGTTACA [XGTACX_site4280],10.9 ± 0.53
6,AATATATATATATATACATGCATATATTCCTTCCTT [TGCATGCA_site890],9.52 ± 0.071
7,ATTCTTTTAAACAGTACACACACACCGATATATATA [CACACA_site8213],11.1 ± 0.64
8,TTTGTGCCTATAAATTAACACACAGAAATATATAGA [CACACA_site8175],10.1 ± 0.21
9,AAAAACTTATATGATACACACGATAAACAAAATAAA [CACACA_site1039],10.18 ± 0.064
10,ATTATTATAGATATAACACACATAATTACATACTTA [CACACA_site6837],9.88 ± 0.11
11,TATTTATTTATAAATGCATGTCGCTCTTTTTATTAC [TGCATGCA_site626],9.885 ± 0.092
12,ATATATATATATATGTGTACATATAAGATAGAAGAA [XGTACX_site3198],11.5 ± 0.83
13,TTATGCATAAAAGGTGGTACTCCGTATATACATTCT [XGTACX_site4354],11.4 ± 0.65
14,AACTATAAAAGTTTTACACACTGTTTTTAAATAATG [CACACA_site7686],10.1 ± 0.021
15,TATTAAAAAAAAAAATAAAAAAATAAAATAAAATAA [CACACA_negctrl_site580],9.4 ± 0.085
16,AAAAGTAAAAAAAGCACACACGAAAAAAAATAAAAA [CACACA_site5264],10.1 ± 0.14
17,TCCATAAATAATTGTAGTACACATACTATGTGACAT [XGTACX_site7268],11.6 ± 0.93
18,TTTTTTAACTGTATGATGTTATATTAAAAATAAAAA [GTGCAC_negctrl_site463],9.79 ± 0.15
